Data on 109 compounds can be found in PubChem BioAssay AID488969 (Vanderbilt High Throughput Screening Facility, 2010).

Structures are written as SMILES. Over roughly 110,000 compounds, “z-score” has its median near -0.1; the highest 2% begin near 2. The list shows a part of the results. The source made the active and inactive calls.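 Rule for the calls: active = z-score in the third read window above 3 or below -3; inactive = the rest.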

This test addresses Metabotropic glutamate receptor 8 (Rattus norvegicus) (UniProt P70579). The test can be described thus: mGluR8 Gi/Go-coupled signaling modulation – cell-based, rat, thallium flux, HTS, primary screen (AID 488969). Conditions: HEK293 rat mGluR8, GIRK (G protein-gated inwardly rectifying potassium channel) thallium flux, FluoZin2; at 10 µM; stronger effect = higher value; submaximal glutamate (EC20) added with thallium.
Chain of UniProt P70579 (P70579 whole entry, looked up): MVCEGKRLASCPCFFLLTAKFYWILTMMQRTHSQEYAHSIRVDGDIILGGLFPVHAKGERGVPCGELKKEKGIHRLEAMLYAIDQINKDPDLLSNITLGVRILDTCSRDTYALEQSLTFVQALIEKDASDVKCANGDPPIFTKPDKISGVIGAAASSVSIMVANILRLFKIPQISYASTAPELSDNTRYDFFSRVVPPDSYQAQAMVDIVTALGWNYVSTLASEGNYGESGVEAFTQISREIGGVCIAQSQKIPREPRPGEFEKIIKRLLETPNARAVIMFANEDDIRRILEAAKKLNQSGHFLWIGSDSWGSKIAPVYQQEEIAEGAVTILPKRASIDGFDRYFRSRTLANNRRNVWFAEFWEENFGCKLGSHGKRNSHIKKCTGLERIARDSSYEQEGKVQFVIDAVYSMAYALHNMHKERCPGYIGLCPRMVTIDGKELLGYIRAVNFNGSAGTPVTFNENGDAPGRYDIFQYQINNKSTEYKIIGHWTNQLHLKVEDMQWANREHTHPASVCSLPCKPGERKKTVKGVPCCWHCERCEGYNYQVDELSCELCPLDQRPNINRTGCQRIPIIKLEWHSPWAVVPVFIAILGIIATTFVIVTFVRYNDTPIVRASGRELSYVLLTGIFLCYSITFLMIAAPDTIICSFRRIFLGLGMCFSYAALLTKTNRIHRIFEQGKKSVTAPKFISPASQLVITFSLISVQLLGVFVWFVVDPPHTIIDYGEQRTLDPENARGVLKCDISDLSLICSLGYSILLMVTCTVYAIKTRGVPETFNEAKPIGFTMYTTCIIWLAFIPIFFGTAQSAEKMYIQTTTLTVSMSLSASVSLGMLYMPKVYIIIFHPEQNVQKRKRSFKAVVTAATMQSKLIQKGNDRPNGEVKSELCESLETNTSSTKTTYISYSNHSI
`Cc1n[nH]c(C)c1CCOc1ccc(C(C)C)cc1` returned a z-score of 0.611.

As for `COc1ccc(N2C(=O)CC(N3CCCC4CCCCC43)C2=O)cc1` (centres undefined), the z-score amounted to 1.86.

In turn, `COC(=O)CSc1nnc(C)c(=O)[nH]1` showed a z-score of 0.343.

Consider `CCOC(=O)c1ccc(NC(=O)CSc2nnc(CNc3ccc(C)cc3)n2C)cc1`, for which the z-score is -0.198.

In the case of `COc1ccc(-n2nnc3c(SCC(=O)NCc4ccco4)ncnc32)cc1`, the z-score was -0.199.

The compound `COc1ccc(Cl)cc1N(CC(=O)N1CCN(Cc2ccccc2)CC1)S(C)(=O)=O` had a z-score of -0.117.

In the case of `O=C(C1=NN[C@@H]2C(=O)N(c3ccccc3C(F)(F)F)C(=O)[C@H]12)c1ccc2ccccc2n1`, the z-score was found to be 0.641.

`O=C(c1ccccc1F)N1CCN(c2ccccc2)CC1` yielded a z-score of 0.0562.

On to `COCCOC(=O)C1=C(N)Oc2c(oc(CO)cc2=O)C1c1ccccc1F` (centres undefined), for which the z-score was -0.347.

As to `CCOc1ccc(CC(=O)C2C(=O)CC(C)(C)CC2=O)cc1OCC`, the z-score stood at 0.508.

Compound `COc1ccc(C(=O)OC(C(=O)c2ccccc2)c2ccccc2)cc1` (centres undefined) displayed a z-score of -0.0598.

Turning to `CC(=O)N(C)c1ccc(OCC(O)Cn2c3ccc(Cl)cc3c3cc(Cl)ccc32)cc1` (centres undefined), the z-score stood at 0.188.

Consider `O=C(CSc1ccc(-c2ccco2)nn1)NCc1ccccc1Cl`, for which the z-score is -0.517.

As for `CCn1c(-c2ccc(N)cc2)nc2ccccc21`, the z-score is -0.0962.

For the compound `Cc1ccc(-c2n[nH]c(=O)c3ccccc23)cc1S(=O)(=O)N(C)CCO`, the z-score was -0.15.

With `O=[N+]([O-])c1cnccc1Nc1cccc(F)c1`, the z-score is 0.28.

Take `O=C1CC(c2ccccc2)CC(O)=C1C=NCc1ccc(Cl)cc1` (centres undefined): the z-score was -0.0336.

For `Nc1ccc(Nc2ccncc2[N+](=O)[O-])cc1`, the z-score amounted to 0.0617.

Take `COc1cc(/C=N/NC(=O)COc2ccc(Cl)cc2)ccc1OS(=O)(=O)c1ccc(C)cc1`: the z-score is -0.0849.

In the case of `COc1cc(/C=N/O)cc(Br)c1OCc1cccc(Cl)c1`, the z-score is -0.0243.

The compound `Cc1ccc2[nH]c(=O)c(CNS(=O)(=O)c3ccccc3)c(-c3ccccc3)c2c1` gave a z-score of -0.494.

For the compound `c1ccc(SCc2nc(-c3ccncc3)no2)cc1`, the z-score was -0.13.

`O=C(O)c1cnc(-c2ccccc2)nc1Sc1ccccc1`: the z-score was -0.111.

On to `CCOc1cc(/C=C2\SC(=S)N(Nc3ccccc3)C2=O)ccc1O`, for which the z-score is -0.154.

In turn, `Cc1ccc(S(=O)(=O)Nc2ccc(Cl)cc2)cc1NC(=O)c1cc2c(s1)CCCC2` showed a z-score of -0.413.

In turn, `CCN1C(=O)c2ccccc2S(=O)c2ccc(C(=O)NC3CC3)cc21` (centres undefined) had a z-score of -0.434.

Take `COc1ccc2cc(C(=O)NCC(=O)O)sc(=O)c2c1OC`: the z-score is active: 3.42.

With `CCC(=O)N/N=C/c1ccc(OS(=O)(=O)c2ccccc2)cc1`, the z-score was -0.163.

`N#CC1=C(N)SC(N)=C(C#N)C1c1c(Cl)cccc1Cl` showed a z-score of -1.74.

`Cc1c(NC(=O)C(C)OC(=O)CNC(=O)c2ccc(C(C)(C)C)cc2)c(=O)n(-c2ccccc2)n1C` (centres undefined) showed a z-score of -0.119.

`COC(=O)c1ccc2c(c1)SC1=C(CCCC1=O)N2` gave a z-score of 0.734.

Regarding `Cc1cc(C(=O)NCCCN2CC(C)CC(C)C2)n(-c2ccccc2)n1` (centres undefined), the z-score is -0.011.

For `Cc1ccc(OCC(=O)NCc2ccco2)cc1C`, the z-score was -0.113.

Compound `Cc1ccc2c(c1)nnn2C1CCN(CC(=O)N2CCN(c3ccc(F)cc3)CC2)CC1` yielded a z-score of -0.916.

As to `Cc1ccc(NC(=O)CC2Oc3ccc(C)cc3NC2=O)cc1` (centres undefined), the z-score is 0.104.

On to `O=C(Nc1ccccc1)NC1CCN(CCCN2C(=O)c3ccccc3C2=O)CC1`, for which the z-score came to 0.296.

Turning to `Cc1ccc2nc(N3CCN(S(=O)(=O)c4ccc(C)c(Cl)c4)CC3)c(C#N)cc2c1`, the z-score is 0.168.

As to `Nn1c(SCC(=O)N2CCc3ccccc3C2)nnc1-c1cccs1`, the z-score is -0.00306.

Regarding `CS(=O)(=O)N1CCN(c2ccccc2NC(=O)c2cccs2)CC1`, the z-score is -0.148.

`O=C(CSc1n[nH]c(-c2ccccc2)n1)c1ccccc1` showed a z-score of -0.568.

As to `O=C(Nc1ccc(F)cc1)NC1(C(=O)NCc2cccs2)CCCCC1`, the z-score was determined as 0.4.

For the compound `Cn1nc(-c2ccccc2)c2nc3ccccc3nc21`, the z-score was -0.137.

Turning to `CCC(=O)Nc1cc2c(cc1C(=O)c1ccccc1)OCCO2`, the z-score was -0.157.

`O=[N+]([O-])c1ccc2[nH]nc(-c3ccccc3)c2c1` registered a z-score of -0.301.

On to `Cc1ccc(S(=O)(=O)N/N=C/c2ccc(OCC(=O)Nc3ccccc3Cl)cc2)cc1`, for which the z-score is -0.134.

For the compound `Cc1cc(C)c(NC(=O)C2CC(=O)N(c3ccc4c(c3)OCCO4)C2)c(C)c1` (centres undefined), the z-score was -0.45.

Turning to `O=C(Nc1ccc(Cl)cc1)c1csc(-c2ccccc2)n1`, the z-score is -0.22.

Compound `Cc1ccc(C(=O)COC(=O)CNC(=O)COc2ccccc2C)cc1C` returned a z-score of -0.594.

`NC(=O)c1ccsc1NC(=O)c1cccs1` displayed a z-score of -0.0367.

Compound `CCN(C(=O)CSc1nnc(Cc2cccc3ccccc23)n1N)C1CCS(=O)(=O)C1` (centres undefined) displayed a z-score of -0.0561.

`COc1ccc(-c2cc(CCCC(=O)N3CCN(c4ccc(OC)cc4)CC3)no2)cc1` gave a z-score of -0.161.

Consider `O=C(NNS(=O)(=O)c1ccccc1)c1ccncc1`, for which the z-score is -0.151.

Consider `Cc1nn(S(=O)(=O)N2CCCCC2)c(C)c1Br`, for which the z-score was -0.00999.

`Cn1cnc2c1c(=O)n(Cc1ccccc1)c(=O)n2C` registered a z-score of -0.174.

`CC1(C)CC(=O)C=C(Nc2cc(-c3ccccc3)[nH]n2)C1` gave a z-score of -0.115.

The compound `CCc1nnc(NC(=O)NCN2C(=O)C3C4C=CC(C4)C3C2=O)s1` (centres undefined) came in with a z-score of -0.373.

In turn, `CCNC(=O)O/N=C(\C)c1sc(-c2ccc(Cl)cc2)nc1C` registered a z-score of -1.15.

`CCC(=O)NC(=S)Nc1ccc(NC(=O)COc2ccccc2)cc1` yielded a z-score of 0.0565.

As for `COc1ccc(-c2nc(CS(=O)CC(=O)NCc3cccnc3)c(C)o2)cc1` (centres undefined), the z-score came to 0.0703.

In turn, `O=C(NCC1CCCO1)c1ccc(NC(=O)C2CC=CCC2C(=O)O)cc1` (centres undefined) had a z-score of -0.0849.

As to `CSc1nc2ccc(NC(=O)CSc3nnc(N)s3)cc2s1`, the z-score is -0.286.

In turn, `CC(C)=CCC/C(C)=C/C=N/NC(=O)c1ccccc1[N+](=O)[O-]` registered a z-score of -0.0423.

For the compound `O=C(CSc1nnc(-c2ccc3c(c2)OCO3)n1-c1ccccc1)c1ccc(Cl)cc1`, the z-score was -0.726.

`COc1cccc(NC(=O)CN(c2cccc(F)c2)S(C)(=O)=O)c1` came in with a z-score of -0.058.

`COc1ccc(S(=O)(=O)n2nc(C)cc2C)c(C)c1C`: the z-score was -0.246.

The compound `Cc1onc(-c2ccccc2Cl)c1C(=O)Nc1c(C)n(C)n(-c2ccccc2)c1=O` had a z-score of 0.0475.

Compound `CCOC(=O)N1CCC(NC(=O)c2cc(C(=O)NC3CCCC3)ccc2CO)CC1` displayed a z-score of -0.638.

`N#C/C(C(=O)Oc1ccccc1)=C1\C=Cc2ccccc2N1` yielded a z-score of 0.0612.

Take `Cc1cccc(S(=O)(=O)NCCC(=O)OC(C)C(=O)NC(=O)NC2CCCCC2)c1` (centres undefined): the z-score is -0.152.

`N#Cc1ccccc1CN1C(=O)S/C(=C/c2cccn2-c2ccc(C(=O)O)cc2)C1=O` yielded a z-score of -0.6.

Turning to `COc1ccc(C2C(=O)N(C3CCCCC3)CC(=O)N2CCc2ccccc2)cc1OC` (centres undefined), the z-score is -0.0366.

With `Cc1nnc(SCC(=O)Nc2nccs2)[nH]c1=O`, the z-score was 0.793.

`CCOC(=O)CN1CC23C=CC(O2)C(C(=O)NC2CCCCCC2)C3C1=O` (centres undefined) returned a z-score of -0.149.

In the case of `C/C(=C\C(=O)O)C(=O)Nc1nccs1`, the z-score was -0.121.

As for `CC(C)(CSc1ccccn1)NS(=O)(=O)c1ccc(Cl)cc1`, the z-score is -0.164.

Compound `O=C(CN1CC(c2ccccc2)CC1=O)OCc1ccccc1F` (centres undefined) yielded a z-score of -0.652.

The compound `Cn1c(SCc2nc3ccccc3c(=O)[nH]2)nnc1-c1ccco1` came in with a z-score of 0.192.

Turning to `CCCCOc1ccccc1NC(=O)C=C(C)C`, the z-score was -0.0373.

On to `COCCn1nnnc1C(c1ccccc1OC)N1CCN(c2ccccc2F)CC1` (centres undefined), for which the z-score is -0.175.

As for `CCn1cc(C(=O)N2CCCCC2)c(=O)c2cc(S(=O)(=O)N3CCC(C)CC3)ccc21`, the z-score was -0.0547.

`COc1ccc(C(=O)NCc2nnc(SCC(=O)NCc3ccc(F)cc3)o2)cc1` displayed a z-score of -0.134.

Compound `O=C(C1CCCN(Cc2ccc3c(c2)OCO3)C1)N1CCCC1` (centres undefined) yielded a z-score of -0.401.

For the compound `N#C/C(=C\c1ccc(Sc2ccc(Cl)cc2)o1)c1nc2ccccc2[nH]1`, the z-score is -0.486.

`O=C(OCC#CCSc1nc2ccccc2o1)c1cc2ccccc2o1`: the z-score is 0.656.

On to `Cc1ccc(CN(Cc2cc3cc4c(cc3[nH]c2=O)OCCO4)Cc2nnnn2Cc2ccco2)cc1`, for which the z-score is -0.0774.

`COC(=O)c1cccc(NS(C)(=O)=O)c1C`: the z-score was -0.254.

In the case of `O=C(NCC(c1cccnc1)N1CCOCC1)c1cccs1` (centres undefined), the z-score is 0.336.

The compound `O=C(CSCc1ccc(Br)cc1)Nc1ccc(S(=O)(=O)N2CCCCCC2)cc1` showed a z-score of 0.923.

Compound `O=C(COC(=O)c1ccc2c(c1Cl)C(=O)c1ccccc1C2=O)NC1CCCCC1` registered a z-score of -0.327.

`C=CCn1c(CCNC(=O)c2cccs2)nnc1SCC(=O)c1cccc([N+](=O)[O-])c1` had a z-score of -0.306.

In turn, `Cc1ccnc(NC(=O)c2ccc([N+](=O)[O-])o2)c1` registered a z-score of -0.0852.

As for `Cc1cc(N/N=C/c2cccc(Br)c2)nc2ccccc12`, the z-score is -0.353.

In the case of `CC1=C(C(=O)Nc2ccccc2)C(c2ccc(C)cc2)N=C(Nc2nc3ccccc3o2)N1` (centres undefined), the z-score is -0.11.

Turning to `C(=C\CSc1ncn[nH]1)/CSc1ncn[nH]1`, the z-score is -0.729.

In turn, `Cc1cccc(NC(=O)CN2C(=O)N/C(=C/c3ccc(C)o3)C2=O)c1` registered a z-score of 0.0879.

For `Nc1cccc2c1C(=O)N(C(=O)c1cccc(S(=O)(=O)N3CCCC3)c1)C2=O`, the z-score is -0.274.

`COc1ccc2nc(N3C(=O)CC(Cc4cc(C)cc(C)c4)C3=O)sc2c1` (centres undefined) registered a z-score of -0.0224.

The compound `CNC(=S)N1N=C(c2ccc(Br)cc2)CC1c1ccc(Br)cc1` (centres undefined) registered a z-score of -0.126.

In the case of `CCN(CC)S(=O)(=O)c1cccc(NC(=O)CN2C(=O)c3ccc([N+](=O)[O-])cc3C2=O)c1`, the z-score was -0.564.

As to `CC(=O)Nc1cc2c(cc1C(=O)c1ccc(C)cc1)OCCO2`, the z-score amounted to 0.116.

Compound `Cc1ccc(Cn2nc(C)c(NC(=O)C3CC3)c2C)cc1` showed a z-score of -0.085.

In the case of `CCOC(=O)c1ccc(NC(=O)c2cccc(S(=O)(=O)N3CCOCC3)c2)cc1`, the z-score stood at 0.0703.

`Cc1cccc2cc(CN(Cc3ccco3)C(=O)c3ccncc3)c(=O)[nH]c12` displayed a z-score of -0.0862.

Take `O=C(Nc1nccs1)c1csc2c1CCCC2`: the z-score is -0.212.

For `CCOC(=O)C1=C(c2ccccc2)N=c2s/c(=C\c3ccc(O)cc3)c(=O)n2C1c1cccs1` (centres undefined), the z-score was -0.218.

Turning to `COc1cc(-c2cc(C(F)(F)F)n3ncc(C(=O)O)c3n2)cc(OC)c1OC`, the z-score is -0.377.

The compound `O=C(/C=C/c1ccco1)Nc1cccc(NC(=O)/C=C/c2ccco2)n1` came in with a z-score of -0.427.

`Cc1cc(=O)[nH]c2cc(O)ccc12`: the z-score is 0.343.

As to `O=C(Cc1cn2ccsc2n1)Nc1cccc2cnccc12`, the z-score was -1.03.
